# ± gives the uncertainty stated by the source. Whole data set: some 9,900 compounds, median “viability index relative to DMSO control” near 1, cut for the lowest 2% near 0.85. This is one part of the list.
# System: Plasmodium falciparum NF54 stage V gametocytes
# Assay: viability index relative to DMSO control (fraction); higher = less gametocyte killing
# Details: 2.5 µM, library set: Broad Institute DOS, incubation time: 72 h
# Summary of the method: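 Compound at 2.5 µM was incubated for 72 hr at 37°C under low oxygen with P. falciparum NF54 stage V gametocytes (0.75% gametocytemia, 1.25% hematocrit, 10 µl, serum-free screening medium) in 1,536-well plates. Staining used 3 µl of 2.5 µM MitoTracker Red CMXRos plus 0.13% saponin for one to two hours, and red particles of 20–70 µm2 were counted in one imaged field per well. Each viability index is that count relative to the plate mean of solvent-only wells.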
row,SMILES,viability index
1,C/C=C/c1ccc([C@H]2[C@H]3CNC[C@@H]2N3C(=O)NC2CCCCC2)cc1,1.11 ± 0.079
2,O=C(C[C@@H]1C[C@@H]2c3cc(NC(=O)NC4CCCC4)ccc3O[C@@H]2[C@@H](CO)O1)NCc1ccccc1F,1.096 ± 0.0033
3,C[C@H]1COCn2nncc2CC[C@@H](Cc2ccc(-c3ccccc3)cc2)C(=O)N1,1.05 ± 0.079
4,Cc1ccc(S(=O)(=O)N2CC[C@H]3[C@@H](CO)N(C)c4ccc(-c5ccccc5F)cc4[C@H]32)cc1,1 ± 0.016
5,CCS(=O)(=O)N1CCCCN2[C@H](CO)[C@@H](c3ccc(-c4ccc(C(=O)N(C)C)cc4)cc3)[C@@H]2C1,1.018 ± 0.0058
6,O=C(Nc1ccc(F)cc1)N1[C@H](CO)[C@H]2c3ccccc3NC[C@H]21,1.031 ± 0.0082
7,COc1ccccc1-c1ccc([C@@H]2[C@H]3CNC[C@@H]2N3Cc2ccc(F)cc2)cc1,1.109 ± 0.0035
8,Cc1noc(C)c1NC(=O)Nc1cccc2c1O[C@H](CN(C)Cc1ccc(C(=O)Nc3ccccc3N)cc1)[C@H](C)CN([C@H](C)CO)C2=O,0.983 ± 0.072
9,O=C(NC1CCCCC1)N1CC2(C1)[C@H](c1ccccc1)[C@@H](CO)N2S(=O)(=O)Cc1ccccc1,1.05 ± 0.09
10,CCS(=O)(=O)Nc1ccc2c(c1)C(=O)N(C)[C@@H]1CC[C@H](CC(=O)N[C@H]3CCN(Cc4ccccc4)C3)O[C@@H]1CO2,1.13 ± 0.099
11,CCS(=O)(=O)N1Cc2cc(C(=O)NCC3CC3)nc(-c3cccc(-c4cccnc4)c3)c2[C@H]1CCO,0.952 ± 0.017
12,O=C(Nc1ccc(F)cc1)N1C[C@H]2[C@@H](c3ccccc31)[C@@H](CO)N2Cc1ccccc1Cl,1.02 ± 0.1
13,C[C@H]1CN([C@@H](C)CO)C(=O)CCCn2nncc2CO[C@@H]1CN(C)Cc1ccc2cccnc2c1,0.879 ± 0.04
14,CNC[C@H]1Oc2cc(C#Cc3ccccc3OC)ccc2S(=O)(=O)N([C@@H](C)CO)C[C@@H]1C,0.867 ± 0.022
15,CCC(=O)N1CC(=O)N2[C@H](CO)[C@@H](c3ccc(-c4ccc(C#N)cc4)cc3)[C@H]2C1,0.98417 ± 3.9e-05
16,CO[C@H]1CN(C)C(=O)c2ccc(NS(=O)(=O)c3c(C)noc3C)cc2OC[C@@H](C)NC[C@H]1C,1.06 ± 0.03
17,COc1ccc2c3c([nH]c2c1)[C@H](CO)N(C[C@]31CCN(CC1)S(=O)(=O)c1cccs1)C(=O)c1ccc(F)cc1,1.12 ± 0.048
18,N#C[C@@H]1[C@@H](c2ccccc2)[C@H](CO)N1C(=O)c1ccccc1F,1.1 ± 0.018
19,CO[C@@H](C(=O)N(C)C[C@@H]1OCc2ccccc2-c2ccccc2C(=O)N([C@@H](C)CO)C[C@@H]1C)c1ccccc1,0.958 ± 0.12
20,Cc1noc(C)c1S(=O)(=O)N(C)C[C@@H]1OCc2ccccc2-c2ccccc2C(=O)N([C@@H](C)CO)C[C@H]1C,1.09 ± 0.011
21,COc1ccc2c3c([nH]c2c1)[C@@H](CO)N(C[C@]31CCN(CC1)C(=O)NC(C)C)C(=O)c1ccc(F)cc1,1.042 ± 0.005
22,C[C@@H]1CN([C@@H](C)CO)C(=O)c2ccccc2-c2ccccc2CO[C@@H]1CN(C)C(=O)[C@@H](Cc1ccccc1)N(C)C,1.05 ± 0.081
23,C[C@@H]1CN([C@@H](C)CO)C(=O)c2c(c3ccccc3n2C)-c2ccccc2CO[C@@H]1CN(C)C(=O)NC1CCCCC1,1.03 ± 0.033
24,COc1ccc(NC(=O)N(C)C[C@H]2OCc3cnnn3CCCC(=O)N([C@H](C)CO)C[C@@H]2C)c(OC)c1,1.08 ± 0.12

row,SMILES,viability index
1,CN1C(=O)c2cc(NC(=O)Nc3ccc(Cl)cc3)ccc2OC[C@@H]2O[C@H](CC(=O)NCCN3CCCCC3)CC[C@H]21,0.955 ± 0.11
2,O=C1CNC[C@@H]2[C@H](c3ccc(C4=CCCC4)cc3)[C@@H](CO)N12,1.082 ± 0.0029
3,CC(=O)N1[C@H](CN(CC2CCC2)C(=O)CN(C)C)[C@@H](c2ccccc2)[C@@H]1CO,1.0227 ± 0.00093
4,C[C@@H]1CN([C@H](C)CO)C(=O)c2cc(NS(=O)(=O)c3cn(C)cn3)ccc2O[C@@H](C)CCCCO[C@@H]1CN(C)Cc1ccc2c(c1)OCO2,1.15 ± 0.07
5,CCNC(=O)C[C@@H]1CC[C@H]2[C@@H](COC[C@@H](O)CN2C(=O)C2CCCC2)O1,1.024 ± 0.0049
6,COc1ccc(CNC(=O)C[C@H]2C=C[C@H](NC(=O)c3cccc(F)c3)[C@H](CO)O2)cc1,1.03 ± 0.047
7,C[C@@H]1CN([C@@H](C)CO)C(=O)Cc2cc(N(C)C)ccc2O[C@@H]1CN(C)C(=O)NC1CCCCC1,1.01 ± 0.032
8,O=C(Nc1ccccc1F)N[C@H]1CC[C@@H](CCNC(=O)C2CC2)O[C@H]1CO,1.09 ± 0.07
9,COCC(=O)N1CC[C@@H]2[C@@H](CO)Nc3ccc(C#Cc4ccc(F)cc4)cc3[C@@H]21,1.09 ± 0.021
10,COCC#Cc1ccc([C@H]2[C@H]3CN(C(=O)NC4CCCC4)CCCCN3[C@H]2CO)cc1,0.952 ± 0.088
11,CC(C)NC(=O)N1[C@@H](CO)[C@@H](c2ccccc2)C12CN(C(=O)Cc1cccnc1)C2,1.13 ± 0.022
12,CCCNC(=O)N1CC(=O)N2[C@H](CO)[C@H](c3ccc(C#CCC4CCCC4)cc3)[C@H]2C1,1.01 ± 0.12
13,CN1C[C@H]2[C@@H](c3ccccc31)[C@@H](CO)N2Cc1ccccc1Cl,1.08 ± 0.043
14,CO[C@H]1CN(C)C(=O)c2cc(NS(=O)(=O)c3cccc(Cl)c3)ccc2OC[C@H](C)NC[C@@H]1C,1.044 ± 0.0029
15,CC(C)C#Cc1ccc([C@@H]2[C@@H](CO)N3C(=O)CN(C(=O)NC4CCCC4)C[C@H]23)cc1,1.14 ± 0.049
16,O=C(C[C@@H]1CC[C@H]2[C@@H](COC[C@@H](O)CN2Cc2cccc(Cl)c2)O1)NCc1cccc(F)c1,1.09 ± 0.088
17,C[C@H](CO)N1C[C@H](C)[C@H](CN(C)S(=O)(=O)c2ccc3c(c2)OCCCO3)OCc2cnnn2CCCC1=O,1.05 ± 0.073
18,O=S(=O)(c1ccccc1)N1CCCCN2[C@H](CO)[C@@H](c3ccc(C#CC4CCCC4)cc3)[C@H]2C1,1.03 ± 0.056
19,CCCNC(=O)N1[C@H](C#N)[C@@H](c2ccccc2-c2cccc(C)c2)[C@@H]1CO,0.977 ± 0.11
20,O=C(C[C@@H]1CC[C@H]2[C@@H](COC[C@@H](O)CN2C(=O)Nc2cc(Cl)cc(Cl)c2)O1)N1CCOCC1,1.08 ± 0.055
21,O=C(C[C@H]1CC[C@H](NS(=O)(=O)c2ccccc2F)[C@H](CO)O1)NCCCN1CCOCC1,0.896 ± 0.1
22,C[C@H]1CN([C@@H](C)CO)C(=O)CCCn2cc(nn2)CO[C@H]1CN(C)Cc1ccccc1,1.03 ± 0.045
23,O=C(Nc1ccc2c(c1)[C@H]1C[C@@H](CC(=O)N3CCOCC3)O[C@@H](CO)[C@H]1O2)Nc1ccccc1F,1.15 ± 0.057
24,COc1ccc(S(=O)(=O)Nc2ccc3c(c2)C(=O)N([C@@H](C)CO)C[C@H](C)[C@@H](CN(C)C(=O)Nc2c(C)noc2C)OCCCC[C@@H](C)O3)cc1,1.06 ± 0.067

row,SMILES,viability index
1,C[C@@H]1CCCCO[C@H](CN(C)C(=O)Nc2ccc3c(c2)OCO3)[C@@H](C)CN([C@@H](C)CO)C(=O)c2cc(NS(=O)(=O)c3ccc(F)cc3)ccc2O1,1.02 ± 0.07
2,C/C=C/c1ccc([C@H]2[C@@H](CO)N(Cc3cccnc3)C23CN(C(=O)CC)C3)cc1,1.02 ± 0.063
3,N#C[C@H]1[C@H](c2ccc(-c3cccnc3)cc2)[C@H](CO)N1C(=O)Nc1ccc(F)cc1,1.04 ± 0.022
4,COc1ccc2c3c([nH]c2c1)[C@H](CO)N(C[C@]31CN(Cc2ccccc2)C1)C(=O)CN1CCOCC1,0.878 ± 0.064
5,Cc1cccc(S(=O)(=O)N2C[C@@H]3N[C@H](C2)[C@@H]3c2ccc(-c3cncnc3)cc2)c1,1.12 ± 0.077
6,COCc1cn(CC[C@@H]2CC[C@H](NC(=O)Nc3c(C)noc3C)[C@H](CO)O2)nn1,0.951 ± 0.12
7,O=C(c1ccccc1)N1[C@H](CO)[C@@H](c2ccccc2)C12CN(Cc1nccs1)C2,1.05 ± 0.13
8,O=C(C[C@@H]1CC[C@H]2[C@@H](COC[C@H](O)CN2Cc2ccc(C(F)(F)F)cc2)O1)N1CCc2ccccc2C1,1.05 ± 0.035
9,COc1ccccc1NC(=O)N1CCCCN2[C@H](CO)[C@H](c3ccc(-c4cccc(C#N)c4)cc3)[C@@H]2C1,1.01 ± 0.011
10,C[C@@H]1CCCCO[C@@H](CN(C)Cc2ccc(Cl)c(Cl)c2)[C@H](C)CN([C@H](C)CO)C(=O)c2cc(NS(=O)(=O)c3cccs3)ccc2O1,0.982 ± 0.087
11,COC(=O)C[C@H]1C[C@H]2c3cc(N)ccc3O[C@H]2[C@@H](CO)O1,0.953 ± 0.038
12,O=C(Nc1ccc2c(c1)[C@H]1C[C@@H](CC(=O)N3CCc4ccccc4C3)O[C@H](CO)[C@H]1O2)c1ccc2c(c1)OCO2,1.04 ± 0.093
13,Cc1noc(C)c1S(=O)(=O)Nc1ccc2c(c1)C(=O)N([C@H](C)CO)C[C@@H](C)[C@H](CN(C)C(=O)NC1CCCCC1)O2,1.01 ± 0.037
14,CN(C)C(=O)c1cccc(-c2ccc([C@H]3[C@H]4CNC[C@@H]3N4Cc3ccc4c(c3)OCO4)cc2)c1,0.999 ± 0.025
15,CN1C(=O)c2cc(NC(=O)Cc3cccs3)ccc2OC[C@@H]2O[C@H](CC(=O)NCCc3ccncc3)CC[C@H]21,1.17 ± 0.17
16,C[C@H](CO)N1C[C@H](C)[C@@H](CN(C)Cc2ccc(Oc3ccccc3)cc2)OCc2ccccc2-c2ccccc2C1=O,0.801 ± 0.016
17,O=S(=O)(NC[C@@H]1[C@@H](c2ccccc2)[C@@H](CO)N1CC1CC1)c1ccccc1,0.898 ± 0.14
18,C[C@H](CO)N1C[C@H](C)[C@@H](CN(C)Cc2ccc3c(c2)OCO3)Oc2cc(Br)ccc2S1(=O)=O,0.942 ± 0.033
19,COc1ccc(NC(=O)N(C)C[C@H]2OCc3ccccc3-c3ccccc3C(=O)N([C@H](C)CO)C[C@H]2C)c(OC)c1,1.06 ± 0.018
20,N#C[C@@H]1[C@H](c2ccccc2-c2ccccc2F)[C@H](CO)N1C(=O)c1cccc(F)c1,1.11 ± 0.11
21,CNC[C@H]1OCc2ccccc2-c2ccccc2C(=O)N([C@H](C)CO)C[C@H]1C,0.97206 ± 7.4e-05
22,C[C@@H](NC(=O)C[C@H]1CC[C@H]2[C@@H](COc3ccc(NC(=O)C4CCOCC4)cc3C(=O)N2C)O1)c1ccccc1,1.18 ± 0.017
23,COc1ccc2c3c([nH]c2c1)[C@@H](CO)NC[C@]31CN(C1)C(=O)Nc1ccc2OCOc2c1,1.03 ± 0.088
